According to patent publication EP1914237B1 (priority 1999, dated 2001):

How the values were obtained:
HSV-1 = format: cell-based; settings: Table 7; CC50/EC50
HCMV [1] = settings: Table 2; CC50/EC50
HCMV [2] = test: microbe, parasite or virus in culture; settings: Human betaherpesvirus 5, MRC5, 120 h, read-out: HCMV EC50, µM

SMILES	Selectivity Index (HSV-1)	Selectivity Index (HCMV [1])	EC50 (HCMV [2])
Nc1ccn(C[C@@H](CO)OCP(=O)(O)O)c(=O)n1 [CDV, cidofovir, reference compound]	> 800	>2174	0.45 ± 0.09 µM
CCCCCCCCCCCCCCCCOCCCOP(=O)(O)COCCn1cnc2c(N)ncnc21 [HDP-Adefovir]	–	–	0.01 µM
Nc1ccn(C[C@H]2COP(=O)(O)CO2)c(=O)n1 [cCDV, cyclic cidofovir, reference compound]	>475	>2128	0.47 ± 0.13 µM
